Reference: article PMC12434519 (ACS Medicinal Chemistry Letters, 2025)
Read-outs that look alike come from different tables or passages of the source.

Target: SARS-CoV-2 NSP14 (Severe acute respiratory syndrome coronavirus 2, UniProt P0DTD1)
Assay: biochemical
[1] = Hill slope of the concentration-response fit
[2] = maximum response, LUM % inhibition, read-out: SARS-CoV-2 NSP14 inhibition: Maximum response (%)
[3] = read-out: SARS-CoV-2 NSP14 inhibition: IC50
[4] = LUM % inhibition, read-out: SARS-CoV-2 NSP14 inhibition: IC50
[5] = LUM % inhibition, read-out: SARS-CoV-2 NSP14 inhibition: Maximum response
[6] = fit of concentration-response curve
[7] = TDI-015051 series, retrospective VS set, biochemical MTase assay, read-out: Merged IC50
[8] = Merged IC50 (µM), TDI-015051 series, retrospective VS set, biochemical MTase assay

CCN(CC)C(=O)c1cccc(NC(=O)CCCn2c(=O)oc3ccccc32)c1 [RU-0833641]
SARS-CoV-2 NSP14 inhibition: Hill slope [1]: 107 | Emax [2]: 1.02% | IC50 [3]: > 62.5 µM

C[C@H](O)c1ccc(C(=O)N[C@@H]2c3ccccc3C[C@H]2NC(=O)c2c[nH]nc2-c2ccccc2F)cc1 [RU-0833673]
SARS-CoV-2 NSP14 inhibition: Hill slope [1]: 17.9 | Emax [2]: 0.53% | IC50 [3]: > 62.5 µM

CN(c1cccc(Cl)c1)S(=O)(=O)c1cccc(C(=O)NC2CCCC2)c1 [RU-0833902]
IC50 [4]: > 125 µM | Emax [5]: 8.12% | SARS-CoV-2 NSP14 inhibition: Hill slope [6]: 244

Cc1c(S(=O)(=O)N2CCn3nccc3C2)cc(C(=O)NCc2cccnc2N2CCCC2)n1C [TDI-013801, Cc1c(S(=O)(=O)N2CCn3nccc3C2)cc(C(=O)NCc2cccnc2N2CCCC2)n1C]
IC50 [7]: 0.00795 µM

Cc1c(S(=O)(=O)c2ccc3[nH]ncc3c2)cc(C(=O)NCc2c(F)ccc3ncn(C4CC4)c23)n1C [TDI-015974, Cc1c(S(=O)(=O)c2ccc3[nH]ncc3c2)cc(C(=O)NCc2c(F)ccc3ncn(C4CC4)c23)n1C]
IC50 [7]: 6.15e-06 µM

NC(=O)[C@@H](CNC(=O)NCc1ccc(Cl)cc1Cl)Cc1ccc(F)cc1 [RU-0833628]
SARS-CoV-2 NSP14 inhibition: Hill slope [1]: -0.981 | Emax [2]: 0.476% | IC50 [3]: > 62.5 µM

COc1cccc(NC(=O)COc2ccc(C(=O)NC(C)c3ccc(-n4ccnc4)cc3)cc2)c1 (stereo not shown) [RU-0833930]
IC50 [4]: > 125 µM | Emax [5]: 8.07% | SARS-CoV-2 NSP14 inhibition: Hill slope [6]: 14.2

COc1ccc(NC(=O)CNC(=O)c2ccccc2F)cc1S(=O)(=O)Nc1ccccc1Cl [RU-0833904]
IC50 [4]: > 125 µM | Emax [5]: 15.2% | SARS-CoV-2 NSP14 inhibition: Hill slope [6]: 8.4

O=C(CCCn1c(=O)oc2ccccc21)Nc1cccc(N2CCCC2=O)c1 [RU-0833688]
SARS-CoV-2 NSP14 inhibition: Hill slope [1]: 1.16 | Emax [2]: 21.7% | IC50 [3]: > 62.5 µM

CCn1c(C(=O)NCc2ccccc2C)cc(S(=O)(=O)N2CCC(C)CC2)c1C [TDI-013343, CCn1c(C(=O)NCc2ccccc2C)cc(S(=O)(=O)N2CCC(C)CC2)c1C]
IC50 [7]: 0.262 µM

Cc1c(F)ccc(C(=O)NCCc2ccc(CNC(=O)c3cccn4nccc34)cc2)c1F [RU-0834088]
IC50 [4]: > 125 µM | Emax [5]: 39.6% | SARS-CoV-2 NSP14 inhibition: Hill slope [6]: 0.371

O=C(NCc1nnc2ccccn12)c1cccc(S(=O)(=O)NCc2ccccc2)c1 [RU-0833665]
SARS-CoV-2 NSP14 inhibition: Hill slope [1]: 2.59 | Emax [2]: 0.512% | IC50 [3]: > 62.5 µM

CCOc1ccc(-n2ccn3c(CC(C)CC(=O)NCc4ccc(OC)cc4)nnc3c2=O)cc1 (stereo not shown) [RU-0833876]
IC50 [4]: > 125 µM | Emax [5]: 22.7% | SARS-CoV-2 NSP14 inhibition: Hill slope [6]: 1.92

CN(C)c1cccc(C(=O)NC2CCC(CCNC(=O)c3ccc(O)c(F)c3F)C2)c1 (stereo not shown) [RU-0834084]
IC50 [4]: > 125 µM | Emax [5]: 17% | SARS-CoV-2 NSP14 inhibition: Hill slope [6]: 788

COC(CCNC(=O)c1cccc(N(C)C)c1)CNC(=O)c1cc(C)c(O)c(C)c1 (stereo not shown) [RU-0834140]
IC50 [4]: 16.3 µM | Emax [5]: 38.1% | SARS-CoV-2 NSP14 inhibition: Hill slope [6]: 1.08

Cc1c(S(=O)(=O)c2ccc3c(cnn3C)c2)cc(C(=O)NCc2c(F)ccc3cnn(C4CC4)c23)n1CCCC#N
IC50 [8]: 0.00257 µM

CCn1cc(Cl)c(C(=O)NCc2ccc(CNC(=O)c3ccc4[nH]ncc4c3)cc2)n1 [RU-0834111]
IC50 [4]: 77 µM | Emax [5]: 49% | SARS-CoV-2 NSP14 inhibition: Hill slope [6]: 0.488

Cc1c(S(=O)(=O)c2cc(Cl)c3[nH]ncc3c2)cc(C(=O)N[C@@H]2CCN(c3ncc(F)cn3)C2)n1C [TDI-016705, Cc1c(S(=O)(=O)c2cc(Cl)c3[nH]ncc3c2)cc(C(=O)N[C@@H]2CCN(c3ncc(F)cn3)C2)n1C]
IC50 [8]: 3.63e-05 µM

O=C(NCCc1nnc2ccccn12)c1cccc(CS(=O)(=O)c2ccccc2)c1 [RU-0833926]
IC50 [4]: > 125 µM | Emax [5]: 14.2% | SARS-CoV-2 NSP14 inhibition: Hill slope [6]: 16.3

COc1ccc(Oc2cc(CNC(=O)N[C@@H](C)c3c(C)nn(C)c3C)ccn2)cc1 [RU-0833687]
SARS-CoV-2 NSP14 inhibition: Hill slope [1]: 1.27 | Emax [2]: 1.2% | IC50 [3]: > 62.5 µM

CN(c1ccccc1)S(=O)(=O)c1cccc(NC(=O)Cn2c(=O)cnc3ccccc32)c1 [RU-0833927]
IC50 [4]: > 125 µM | Emax [5]: 14% | SARS-CoV-2 NSP14 inhibition: Hill slope [6]: 511

O=C(NCc1nccc2ccccc12)c1ccc(Cl)c(S(=O)(=O)N2CCCCCC2)c1 [RU-0833917]
IC50 [4]: 12 µM | Emax [5]: 58.2% | SARS-CoV-2 NSP14 inhibition: Hill slope [6]: 0.938

O=C(NC1CCC2(CCN(C(=O)c3ccn4cncc4c3)C2)C1)c1ncc2ccccn12 (stereo not shown) [RU-0834083]
IC50 [4]: > 125 µM | Emax [5]: 11.2% | SARS-CoV-2 NSP14 inhibition: Hill slope [6]: 93.7

Cc1ccc(F)c(C(=O)NCCc2ccc(CNC(=O)C3CCC(O)CC3)cc2)c1F (stereo not shown) [RU-0834133]
IC50 [4]: > 125 µM | Emax [5]: 20.2% | SARS-CoV-2 NSP14 inhibition: Hill slope [6]: 1.19

CCn1c(C(=O)NCc2cnn3ccccc23)cc(S(=O)(=O)N2CCc3ccccc3C2)c1C [TDI-013662, CCn1c(C(=O)NCc2cnn3ccccc23)cc(S(=O)(=O)N2CCc3ccccc3C2)c1C]
IC50 [7]: 0.0802 µM

Cc1ccn2c(C(=O)NCCC3CCC(NC(=O)c4cc5cn[nH]c5cn4)C3)cnc2c1 (stereo not shown) [RU-0834195]
IC50 [4]: > 125 µM | Emax [5]: 21.9% | SARS-CoV-2 NSP14 inhibition: Hill slope [6]: 0.503

O=C(N[C@H]1CN(C(=O)c2ccc3[nH]ncc3c2)C2(CCC2)C1)c1cc(F)c2n[nH]nc2c1 [RU-0833678]
SARS-CoV-2 NSP14 inhibition: Hill slope [1]: 0.884 | Emax [2]: 11.3% | IC50 [3]: > 62.5 µM

COc1ccnc(C(=O)NCC2CCCC3CN(C(=O)Cc4ccc(O)c(C)c4)CC23)c1C (stereo not shown) [RU-0834121]
IC50 [4]: > 125 µM | Emax [5]: 17.4% | SARS-CoV-2 NSP14 inhibition: Hill slope [6]: 7.03

Cc1c([S+]([O-])c2cc(Cl)c3[nH]ncc3c2)cc(C(=O)NCc2c(Cl)cnn2C)n1C (stereo not shown) [TDI-016715, Cc1c(S(=O)c2cc(Cl)c3[nH]ncc3c2)cc(C(=O)NCc2c(Cl)cnn2C)n1C]
IC50 [7]: 0.0272 µM

Cc1ccc2cc(C(=O)N3CC4CCC4(CCNC(=O)c4n[nH]c5cccnc45)C3)cn2c1 (stereo not shown) [RU-0834098]
IC50 [4]: 25.6 µM | Emax [5]: 80.4% | SARS-CoV-2 NSP14 inhibition: Hill slope [6]: 2.5

Cc1ccc(N(C)S(=O)(=O)c2cccc(C(=O)NC3CCOc4ccccc43)c2)cc1 (stereo not shown) [RU-0833906]
IC50 [4]: > 125 µM | Emax [5]: 11.5% | SARS-CoV-2 NSP14 inhibition: Hill slope [6]: 6.76

O=C(NC1CCCc2ccccc21)C1CCCN(S(=O)(=O)Cc2ccccc2)C1 (stereo not shown) [RU-0833890]
IC50 [4]: > 125 µM | Emax [5]: 9.7% | SARS-CoV-2 NSP14 inhibition: Hill slope [6]: 43.9

CC(NC(=O)c1cccc(S(=O)(=O)N(C)C2CCCCC2)c1)c1ccc(-n2cncn2)cc1 (stereo not shown) [RU-0833873]
IC50 [4]: > 125 µM | Emax [5]: 14.9% | SARS-CoV-2 NSP14 inhibition: Hill slope [6]: 34.9

CC1CN(C(=O)c2ccc(CNC(=O)c3ncn4ccccc34)cn2)Cc2c[nH]nc21 (stereo not shown) [RU-0834115]
IC50 [4]: > 125 µM | Emax [5]: 14.9% | SARS-CoV-2 NSP14 inhibition: Hill slope [6]: 14.3

O=C(Nc1ccnn1Cc1ccc(Cl)cc1Cl)[C@H]1CC(=O)N(c2ccc3c(c2)OCCO3)C1 [RU-0833632]
SARS-CoV-2 NSP14 inhibition: Hill slope [1]: -2.2 | Emax [2]: 0.32% | IC50 [3]: > 62.5 µM

Cc1cc(CNC(=O)c2cn(CCNC(=O)c3ccc(O)cc3F)nn2)ccc1F [RU-0834128]
IC50 [4]: > 125 µM | Emax [5]: 37.8% | SARS-CoV-2 NSP14 inhibition: Hill slope [6]: 0.518

O=C(N[C@@H]1CC[C@H](CNC(=O)c2cnc3ccccn23)C1)c1ccc(O)c(F)c1 [RU-0834157]
IC50 [4]: > 125 µM | Emax [5]: 11.3% | SARS-CoV-2 NSP14 inhibition: Hill slope [6]: 99.4

C[C@H](NC(=O)c1cccc(S(=O)(=O)N2CCCC2)c1)c1nnc2ccccn12 [RU-0833630]
SARS-CoV-2 NSP14 inhibition: Hill slope [1]: 0.819 | Emax [2]: 2.9% | IC50 [3]: > 62.5 µM

Cc1cc2cc(C(=O)N[C@@H]3CCC[C@H](CNC(=O)c4nccn5ccnc45)C3)ccc2[nH]1 [RU-0834165]
IC50 [4]: > 125 µM | Emax [5]: 12.1% | SARS-CoV-2 NSP14 inhibition: Hill slope [6]: 210

O=C(NCc1ccc(CNC(=O)C2CCC(O)CC2)cc1)c1ccc(F)cc1Cl (stereo not shown) [RU-0834122]
IC50 [4]: > 125 µM | Emax [5]: 35.5% | SARS-CoV-2 NSP14 inhibition: Hill slope [6]: 0.697

Cc1n[nH]c(C)c1CNC(=O)c1cc(S(=O)(=O)c2ccc3[nH]ncc3c2)c(C)n1C [TDI-016594, Cc1n[nH]c(C)c1CNC(=O)c1cc(S(=O)(=O)c2ccc3[nH]ncc3c2)c(C)n1C]
IC50 [7]: 0.0251 µM

Cc1c(S(=O)(=O)c2ccc3[nH]ncc3c2)cc2n1CCOCCCc1ccccc1CNC2=O [TDI-016617, Cc1c(S(=O)(=O)c2ccc3[nH]ncc3c2)cc2n1CCOCCCc1ccccc1CNC2=O]
IC50 [7]: 0.0294 µM

Cc1cc(C(=O)N2CCC3(CC(NC(=O)c4c(F)cccc4F)CO3)C2)cc2cn[nH]c12 (stereo not shown) [RU-0834091]
IC50 [4]: > 125 µM | Emax [5]: 10.2% | SARS-CoV-2 NSP14 inhibition: Hill slope [6]: 18.4

Cn1c(CNc2cccc(C(=O)NCc3nncn3C3CC3)c2)nnc1-c1ccncn1 [RU-0833655]
SARS-CoV-2 NSP14 inhibition: Hill slope [1]: 34.9 | Emax [2]: -1.73% | IC50 [3]: > 62.5 µM

C=C1Nc2ncnn2C(C)=C1CCC(=O)Nc1cccc(C(=O)Nc2cccc(C(F)(F)F)c2)c1 [RU-0833910]
IC50 [4]: > 125 µM | Emax [5]: 34.2% | SARS-CoV-2 NSP14 inhibition: Hill slope [6]: 0.584

O=C(NCc1cccnc1N1CCCC1)c1ccc(Cl)c(S(=O)(=O)N2CCn3nccc3C2)c1 [TDI-014477, O=C(NCc1cccnc1N1CCCC1)c1ccc(Cl)c(S(=O)(=O)N2CCn3nccc3C2)c1]
IC50 [7]: 0.063 µM

Cc1cccc(CNC(=O)c2cc3n(n2)CCCN(Cc2cccc(F)c2)C3=O)c1 [RU-0833877]
IC50 [4]: > 125 µM | Emax [5]: 21.6% | SARS-CoV-2 NSP14 inhibition: Hill slope [6]: 1.55

Cc1ccc(C)c(C(=O)Nc2cccc(CNC(=O)c3ccc4[nH]ncc4c3)c2)n1 [RU-0834108]
IC50 [4]: 23.7 µM | Emax [5]: 54% | SARS-CoV-2 NSP14 inhibition: Hill slope [6]: 0.909

COc1ccc(CCNC(=O)c2cccc(S(=O)(=O)Nc3ccccc3F)c2)cc1OC [RU-0833651]
SARS-CoV-2 NSP14 inhibition: Hill slope [1]: 12.2 | Emax [2]: 0.99% | IC50 [3]: > 62.5 µM
